This note sets out measurements from paper PMC4501731.

The chains behind the UniProt entries cited, without tags or fusion partners.
UniProt Q04206: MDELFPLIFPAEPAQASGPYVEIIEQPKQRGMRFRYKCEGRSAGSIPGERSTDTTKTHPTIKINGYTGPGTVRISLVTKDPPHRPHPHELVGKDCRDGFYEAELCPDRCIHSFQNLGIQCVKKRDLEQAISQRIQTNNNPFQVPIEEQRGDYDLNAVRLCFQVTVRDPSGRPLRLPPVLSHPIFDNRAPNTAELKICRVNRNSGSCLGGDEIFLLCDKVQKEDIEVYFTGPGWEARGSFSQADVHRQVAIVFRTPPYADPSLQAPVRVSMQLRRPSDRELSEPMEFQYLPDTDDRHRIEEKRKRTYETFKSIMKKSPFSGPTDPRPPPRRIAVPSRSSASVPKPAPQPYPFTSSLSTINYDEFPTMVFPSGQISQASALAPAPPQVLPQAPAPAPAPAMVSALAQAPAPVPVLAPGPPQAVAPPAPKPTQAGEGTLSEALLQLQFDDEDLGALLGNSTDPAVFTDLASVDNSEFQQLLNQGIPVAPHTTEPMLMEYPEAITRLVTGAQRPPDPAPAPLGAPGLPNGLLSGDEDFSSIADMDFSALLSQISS

Results are given in words; binding and its absence hold for the method and conditions named. Binding seen in cells or lysates may run through a third protein. Some entries that bind do so weakly or less than the wild type. For some of these results: Where a sequence is shown, tags or fusion partners need not be part of it.

The target in one assay is T1, GST-dysbindin-1A (UniProt Q96EV8).
T1 sequence: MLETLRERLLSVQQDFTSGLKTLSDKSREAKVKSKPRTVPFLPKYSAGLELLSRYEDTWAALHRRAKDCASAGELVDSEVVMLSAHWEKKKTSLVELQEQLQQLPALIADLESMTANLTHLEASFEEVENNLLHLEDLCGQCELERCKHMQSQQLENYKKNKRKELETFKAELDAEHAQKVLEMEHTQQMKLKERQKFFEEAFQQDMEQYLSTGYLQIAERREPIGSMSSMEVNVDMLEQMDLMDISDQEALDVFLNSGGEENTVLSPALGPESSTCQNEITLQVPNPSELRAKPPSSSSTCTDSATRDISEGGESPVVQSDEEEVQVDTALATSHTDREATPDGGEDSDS
Kind of assay: pull-down; GST or GST-dysbindin-1A on Glutathione-Sepharose 4B, washed with PBS, incubated with His-p65 for 3 hours at 4°C, washed six times with PBS; immunoblot.

The target of the next assay is T2, EGFP-dysbindin-1A (UniProt Q96EV8).
T2 sequence: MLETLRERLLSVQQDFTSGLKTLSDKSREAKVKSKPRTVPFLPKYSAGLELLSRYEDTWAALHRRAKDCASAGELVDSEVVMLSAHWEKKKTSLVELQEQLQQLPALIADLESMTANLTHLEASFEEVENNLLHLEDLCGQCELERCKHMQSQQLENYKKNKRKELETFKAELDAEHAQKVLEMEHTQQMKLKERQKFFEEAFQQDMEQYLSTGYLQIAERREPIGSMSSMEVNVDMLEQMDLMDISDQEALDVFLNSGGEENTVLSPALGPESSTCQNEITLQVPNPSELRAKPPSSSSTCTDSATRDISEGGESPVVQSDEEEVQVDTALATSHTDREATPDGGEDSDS
Nature of the assay: co-IP; cells expressing EGFP-dysbindin-1A or EGFP-dysbindin-1A del 2–41, with endogenous or overexpressed p65 (Fig B in S1 File); antibody used to precipitate not told in the text shown.

Assay [1] addresses T3, EGFP-dysbindin-1A del 2–41 (UniProt Q96EV8).
T3 sequence: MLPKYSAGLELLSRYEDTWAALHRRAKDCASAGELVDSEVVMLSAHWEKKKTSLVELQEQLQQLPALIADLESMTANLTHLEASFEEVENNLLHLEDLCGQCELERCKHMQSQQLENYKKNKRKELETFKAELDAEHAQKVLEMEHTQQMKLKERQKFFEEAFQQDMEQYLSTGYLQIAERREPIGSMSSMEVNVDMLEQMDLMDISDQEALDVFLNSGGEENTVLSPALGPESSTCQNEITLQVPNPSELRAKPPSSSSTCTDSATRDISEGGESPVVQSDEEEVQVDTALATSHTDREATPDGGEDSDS
The assay is described as above.

The target in assay [2] is T4, endogenous dysbindin-1A (human (endogenous in SH-SY5Y)) (UniProt Q96EV8).
T4 sequence: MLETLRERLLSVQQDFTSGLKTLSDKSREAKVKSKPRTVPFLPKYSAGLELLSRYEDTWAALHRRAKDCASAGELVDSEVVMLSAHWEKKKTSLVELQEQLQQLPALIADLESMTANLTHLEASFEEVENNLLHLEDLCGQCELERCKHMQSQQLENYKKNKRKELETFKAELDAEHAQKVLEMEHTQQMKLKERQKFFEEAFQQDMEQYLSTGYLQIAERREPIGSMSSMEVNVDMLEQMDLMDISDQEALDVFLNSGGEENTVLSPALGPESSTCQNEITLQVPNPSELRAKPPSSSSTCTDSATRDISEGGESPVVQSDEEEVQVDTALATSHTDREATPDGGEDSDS
Kind of assay: co-IP; endogenous proteins of SH-SY5Y cells; anti-dysbindin antibodies and protein G agarose overnight at 4°C; immunoblot for p65.

In assay [3] the target is EGFP-p65 (UniProt Q04206). Nature of the assay: co-IP; nuclear fraction of HEK293 cells transfected with EGFP or EGFP-p65 and Flag-dysbindin-1A; anti-GFP antibody; immunoblot. In general terms: Immunoblotting shows a protein as a band on a membrane.
Assay [4] has as its target EGFP-p65 (UniProt Q04206). Nature of the assay: co-IP; cytoplasmic fraction of HEK293 cells transfected with EGFP or EGFP-p65 and Flag-dysbindin-1A; anti-GFP antibody; immunoblot.
The target in assay [5] is EGFP-p65 (UniProt Q04206). Nature of the assay: co-IP; HEK293 cells co-transfected with Flag-dysbindin-1A and EGFP or EGFP-p65; whole lysate (50 mM Tris-HCl pH 7.5, 150 mM NaCl, 1% NP-40, 0.5% sodium deoxycholate); anti-GFP antibody and protein G agarose overnight at 4°C; immunoblot.

In the case of His-p65 (from UniProt Q04206 1-551), the binding result in the assay with GST-dysbindin-1A is listed as “binds”.
In the case of “endogenous p65 (cells of Fig B in S1 File) (from UniProt Q04206 1-551)”, the binding entry (with EGFP-dysbindin-1A; in assay [1]) was “binds” throughout.
On to “endogenous p65 (from UniProt Q04206 1-551)”, for which the binding entry in assay [2] is “binds”.

B1: Flag-dysbindin-1A (protein, UniProt Q96EV8-1 1-351)
chain: MLETLRERLLSVQQDFTSGLKTLSDKSREAKVKSKPRTVPFLPKYSAGLELLSRYEDTWAALHRRAKDCASAGELVDSEVVMLSAHWEKKKTSLVELQEQLQQLPALIADLESMTANLTHLEASFEEVENNLLHLEDLCGQCELERCKHMQSQQLENYKKNKRKELETFKAELDAEHAQKVLEMEHTQQMKLKERQKFFEEAFQQDMEQYLSTGYLQIAERREPIGSMSSMEVNVDMLEQMDLMDISDQEALDVFLNSGGEENTVLSPALGPESSTCQNEITLQVPNPSELRAKPPSSSSTCTDSATRDISEGGESPVVQSDEEEVQVDTALATSHTDREATPDGGEDSDS
As for B1, the results for the binding result in the assay with EGFP-p65 [3], with EGFP-p65 [4] and in the assay with EGFP-p65 [5] were “binds”, “no binding (condition: in the cytosolic fraction)” and “binds”, respectively.
